Source: PMC11527973, “Efficient characterization of multiple binding sites of small molecule imaging ligands on amyloid-beta, tau and alpha-synuclein” (European Journal of Nuclear Medicine and Molecular Imaging, 2024)
Where two headings read alike, the source gives them in different places. Entries with a single value are a further part of the results.

Biological target: recombinant K18 tau fibrils (Homo sapiens, UniProt P10636)
Assay: SPR binding kinetics on immobilized K18-tau fibrils
Parameters: K18 tau was detected using a monoclonal tau antibody (anti-tau 4-repeat isoform RD4, clone 1E1/A6); made in house; host or cells: E. coli
Settings: surface HC1500M, sum2exp model, two components per analyte, read-out: KD, equilibrium dissociation constant
Method: SPR measurements were conducted in HEPES-buffered saline (HBS, Teknova, USA) buffer at 20 °C using Biacore instruments T200 and S200 (Cytiva, Uppsala, Sweden). Aβ42, tau, and αSyn recombinant fibrils were immobilized in the flow cell of sensor chips produced by Xantec (Düsseldorf, Germany) and Cytiva by coupling fibril amine groups to sulfo-N-hydroxysuccinimide (sulfo-NHS)-activated carboxylic acid groups on the chip surface. Since no nonbinding fibril(s) were available, the reference flow cell remained empty. […]
The immobilized fibrils were stable for a few days. Kinetic constants for binding were determined by injection of a dilution series of 5–8 concentrations of ligand in HBS buffer at a flow rate of 30 µL/minute in duplicate ("full kinetics").
The data was evaluated using BiaEvaluate v2.03 software (Cytiva, Sweden). Binding kinetics were analyzed globally using different kinetic models, including 1 + 1, a sum of two exponentials model ("heterogeneous ligand" in terms of BiaEvaluate, sum2exp), and a sum of three exponentials model (sum3exp) that was created using the script editor of the software.

UniProt P10636, sequence (P10636 561-685 limits assumed): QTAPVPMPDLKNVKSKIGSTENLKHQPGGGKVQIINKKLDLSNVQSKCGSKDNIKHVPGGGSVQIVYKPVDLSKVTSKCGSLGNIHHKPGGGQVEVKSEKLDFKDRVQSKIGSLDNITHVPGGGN

- Kd (first binding component): 2.81 µM
- Kd (second binding component): 112 µM
SMILES: O=C(O)Cc1cc(-c2ccc(-c3ccc(C(=O)O)s3)s2)sc1-c1ccc(-c2sc(-c3ccc(-c4ccc(C(=O)O)s4)s3)cc2CC(=O)O)s1 [h-FTAA, Hepta-formylthiophene acetic acid]
